In test [1] the target is T1, GST-CPD C (C-terminal aa 111–343 of Cupidin) (mouse) (UniProt Q9QWW1).
T1 sequence: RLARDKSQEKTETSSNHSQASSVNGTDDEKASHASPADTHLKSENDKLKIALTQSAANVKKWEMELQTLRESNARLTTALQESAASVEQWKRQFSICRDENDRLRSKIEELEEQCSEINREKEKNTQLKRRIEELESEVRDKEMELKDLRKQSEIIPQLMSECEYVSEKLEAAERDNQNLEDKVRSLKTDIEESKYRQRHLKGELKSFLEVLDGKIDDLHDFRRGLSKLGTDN
Nature of the test: condition: only in the presence of [35S]-GDPβS instead of [35S]-GTPγS; far-Western, overlay or dot blot; as the Cdc42 ligand overlay, but in the presence of [35S]-GDPβS and Cdc42; both purified. In general terms: GTPγS resists hydrolysis and so accumulates on activated G proteins.

By UniProt entry, the sequences of proteins in these tests, tags left out.
UniProt P60953: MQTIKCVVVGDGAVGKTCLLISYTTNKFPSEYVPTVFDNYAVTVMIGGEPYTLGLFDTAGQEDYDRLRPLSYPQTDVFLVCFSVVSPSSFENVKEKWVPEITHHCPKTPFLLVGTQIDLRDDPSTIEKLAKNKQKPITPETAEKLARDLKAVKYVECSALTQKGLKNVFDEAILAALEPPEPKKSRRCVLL

The target in another test is T2, GST-CPD 151–343 (mouse) (UniProt Q9QWW1).
T2 sequence: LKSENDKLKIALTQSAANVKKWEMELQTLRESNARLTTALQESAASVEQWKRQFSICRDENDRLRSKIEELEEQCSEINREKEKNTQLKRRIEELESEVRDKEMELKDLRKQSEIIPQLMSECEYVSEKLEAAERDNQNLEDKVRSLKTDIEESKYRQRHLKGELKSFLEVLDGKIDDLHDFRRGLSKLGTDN
Nature of the test: far-Western, overlay or dot blot; 1 μg of GST-fused Cupidin constructs separated by 10% SDS-PAGE, blotted onto nitrocellulose, re-natured, probed with GST-Cdc42 loaded with [35S]-GTPγS; radioactivity read with a BAS2000 analyzer; both purified.

A further test deals with T3, GST-CPD 191–230 (mouse) (UniProt Q9QWW1).
T3 sequence: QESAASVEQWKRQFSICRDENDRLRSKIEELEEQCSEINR
The test is described as above.

Another test has as its target T4, GST-CPD 191–283 (mouse) (UniProt Q9QWW1).
T4 sequence: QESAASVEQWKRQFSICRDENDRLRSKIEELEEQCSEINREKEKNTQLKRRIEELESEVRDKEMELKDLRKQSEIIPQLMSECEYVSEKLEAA
The description is as above.

The next test concerns the target T5, GST-CPD 191–343 (mouse) (UniProt Q9QWW1).
T5 sequence: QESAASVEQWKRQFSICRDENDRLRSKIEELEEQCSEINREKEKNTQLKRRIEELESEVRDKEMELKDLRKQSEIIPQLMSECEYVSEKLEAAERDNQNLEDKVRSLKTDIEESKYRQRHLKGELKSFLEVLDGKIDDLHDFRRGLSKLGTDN
Described as above.

The target of a further test is T6, GST-CPD 231–283 (mouse) (UniProt Q9QWW1).
T6 sequence: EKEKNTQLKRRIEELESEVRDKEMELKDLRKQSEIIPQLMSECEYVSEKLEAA
Described as above.

The target in a further test is T7, GST-CPD 231–343 (mouse) (UniProt Q9QWW1).
T7 sequence: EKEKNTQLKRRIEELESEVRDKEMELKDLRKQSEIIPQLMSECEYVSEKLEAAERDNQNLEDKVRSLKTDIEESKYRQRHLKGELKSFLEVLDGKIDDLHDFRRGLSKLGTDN
The description is as above.

Another test has as its target T8, GST-CPD 284–343 (mouse) (UniProt Q9QWW1).
T8 sequence: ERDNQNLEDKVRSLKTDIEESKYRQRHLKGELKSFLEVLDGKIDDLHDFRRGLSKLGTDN
Described as above.

Test [2] addresses T1, GST-CPD C (C-terminal aa 111–343 of Cupidin) (mouse). The description is as above.
The target in test [3] is T9, GST-CPD N (N-terminal aa 1–110 of Cupidin) (mouse) (UniProt Q9QWW1).
T9 sequence: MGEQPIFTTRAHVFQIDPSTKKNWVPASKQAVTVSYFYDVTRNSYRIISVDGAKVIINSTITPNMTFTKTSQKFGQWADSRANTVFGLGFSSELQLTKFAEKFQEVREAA
The test is described as above.

For test [4], the target named is T10, GST-CPDΔ191–230 (Cupidin with a deletion of aa 191–230) (mouse) (UniProt Q9QWW1).
T10 sequence: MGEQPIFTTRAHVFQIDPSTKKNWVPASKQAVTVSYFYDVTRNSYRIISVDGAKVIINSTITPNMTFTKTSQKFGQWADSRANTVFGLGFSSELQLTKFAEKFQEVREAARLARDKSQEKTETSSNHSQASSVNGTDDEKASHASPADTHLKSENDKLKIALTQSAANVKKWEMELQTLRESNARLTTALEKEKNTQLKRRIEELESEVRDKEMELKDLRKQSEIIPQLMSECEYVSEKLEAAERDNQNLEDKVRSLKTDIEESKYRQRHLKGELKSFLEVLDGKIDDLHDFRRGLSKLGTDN
The test is described as above.

Test [5] deals with T11, GST-CPDΔ191–283 (Cupidin with a deletion of aa 191–283) (mouse) (UniProt Q9QWW1).
T11 sequence: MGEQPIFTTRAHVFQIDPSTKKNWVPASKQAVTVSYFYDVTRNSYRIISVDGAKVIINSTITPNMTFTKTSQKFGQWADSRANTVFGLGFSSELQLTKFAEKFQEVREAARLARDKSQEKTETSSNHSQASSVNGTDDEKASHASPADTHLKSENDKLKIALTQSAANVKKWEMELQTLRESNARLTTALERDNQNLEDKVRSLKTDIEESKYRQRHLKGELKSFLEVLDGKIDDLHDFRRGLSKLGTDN
The test is described as above.

For test [6], the target named is T12, GST-CPDΔ231–283 (Cupidin with a deletion of aa 231–283) (mouse) (UniProt Q9QWW1).
T12 sequence: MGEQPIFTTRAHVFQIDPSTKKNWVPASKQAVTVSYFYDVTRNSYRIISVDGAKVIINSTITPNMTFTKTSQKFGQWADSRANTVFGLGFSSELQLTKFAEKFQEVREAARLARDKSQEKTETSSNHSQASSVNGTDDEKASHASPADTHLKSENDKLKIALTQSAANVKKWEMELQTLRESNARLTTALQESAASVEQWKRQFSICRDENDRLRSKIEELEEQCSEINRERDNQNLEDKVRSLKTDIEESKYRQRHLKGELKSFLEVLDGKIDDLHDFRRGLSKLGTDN
The test is described as above.

The target in test [7] is T13, GST-fused Cupidinα/Homer2a (GST-CPD) (mouse) (UniProt Q9QWW1).
T13 sequence: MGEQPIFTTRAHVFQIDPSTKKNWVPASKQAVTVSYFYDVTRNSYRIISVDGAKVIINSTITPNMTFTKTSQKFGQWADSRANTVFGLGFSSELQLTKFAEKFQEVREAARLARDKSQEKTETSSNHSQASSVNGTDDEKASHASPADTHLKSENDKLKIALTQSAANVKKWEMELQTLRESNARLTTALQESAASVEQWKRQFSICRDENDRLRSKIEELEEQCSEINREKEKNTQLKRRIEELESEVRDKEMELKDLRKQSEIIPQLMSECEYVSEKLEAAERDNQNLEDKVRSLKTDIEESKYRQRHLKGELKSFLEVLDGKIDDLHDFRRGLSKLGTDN
The description is as above.

In test [8] the target is T14, GST-fused mouse Drebrin A C-terminal region (Drebrin-C WT, aa 579-706) (mouse) (UniProt Q9QXS6).
T14 sequence: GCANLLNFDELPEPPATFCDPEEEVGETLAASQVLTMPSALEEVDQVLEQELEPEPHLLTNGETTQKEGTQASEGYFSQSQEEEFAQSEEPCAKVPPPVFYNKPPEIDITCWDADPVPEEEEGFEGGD
Nature of the test: far-Western, overlay or dot blot; GST-Drebrin-C WT or mutant electrophoresed and transferred to nitrocellulose, overlaid with GST-CPD protein extracts; detected with anti-Cupidin (CPD C) antibody.

For test [9], the target named is T15, GST-fused mouse Drebrin A C-terminal region, double mutant (Drebrin-C mutant with P593A and P675A) (mouse) (UniProt Q9QXS6).
T15 sequence: T14 sequence with P15A, P97A
Described as above.

Test [10] deals with Cupidin (CPD), Flag-tagged and GFP-tagged copies co-expressed in COS7 cells (mouse) (UniProt Q9QWW1). The test is described as follows: co-IP; COS7 cells triple-transfected with Flag-tagged and GFP-tagged copies and myc-Cdc42V12 or myc-Cdc42N17; 1% Triton X-100 lysate; IP with anti-Flag antibody, blot with anti-CPD antibody.

Positions count from the first letter of the chain named. No constants are given. Whether binding was seen depends on the method and setting. For some assays here: Binding seen in cells or lysates may run through a third protein. Some binding calls cover weakened binding; strength is not graded here. Where a sequence is shown, tags or fusion partners need not be part of it.

Take “GST-fused Cdc42 small GTPase (from UniProt P60953 1-191) (enzyme)”: the binding result in test [1] was “no binding”; in the test with GST-CPD 151–343 (mouse), “binds”; with GST-CPD 191–230 (mouse), “no binding”; in the test with GST-CPD 191–283 (mouse), “binds”; with GST-CPD 191–343 (mouse), “binds”; with GST-CPD 231–283 (mouse), “no binding”. Moreover, the binding result with GST-CPD 231–343 (mouse) is on record as “binds weakly”; with GST-CPD 284–343 (mouse), “no binding”; in [2] it was “binds”; in test [3], “no binding”; in test [4] it was “binds”; in test [5], “no binding”. The binding entry was “no binding” in test [6] and “binds” in [7].

B1: GST-fused Cupidinα/Homer2a (GST-CPD) (protein, UniProt Q9QWW1-2 1-343)
chain: T13 sequence
On to B1, for which the binding entry in test [8] was “binds”; in test [9], “no binding”.

B2: Cupidin (CPD), Flag-tagged and GFP-tagged copies co-expressed in COS7 cells (protein, UniProt Q9QWW1-2 1-343)
chain: T13 sequence
For the molecule B2, in test [10], the binding entry is “binds”.

The values above are taken from paper PMC2666743.
